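1) Cells in 96-well plates. 2) Compound, 48 h, 5 concentrations. 3) Linear interpolation between surrounding doses. 4) Unreached endpoint = highest concentration. GI50 marks 50% less growth. TGI: concentration producing complete growth inhibition.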
System: NCI-H322M lung
Experiment: DTP human tumour cell line panel, 48 h

O=C(Nc1ccc(F)c(F)c1)c1cc(-c2ccc(F)cc2F)ccc1O
GI50: 1560 nM | TGI: > 50 µM

COc1cccc2c1C=CC1(O2)Oc2cccc(OC)c2C=C1C (stereo not drawn)
GI50: 1620 nM | TGI: > 100 µM

C=C(C)[C@@H]1CC[C@]2(COP(=O)(OCC)OCC)CC[C@]3(C)[C@H](CC[C@@H]4[C@@]5(C)CCCNC(C)(C)[C@@H]5CC[C@]43C)[C@@H]12
GI50: 1520 nM | TGI: 2.89 µM

Cc1cc2ncc(-c3cc4ccccc4c(N4CCN(C)CC4)n3)nc2cc1C
GI50: 3770 nM | TGI: 26 µM

— PubChem BioAssay (NCI)
